PubChem BioAssay AID342 (DTP/NCI, 2004)
Certain results were filed several times, with different values. This is not the full list of results. The source may hold further records. The records of an entry are repeats (runs, samples, wells, individuals or studies).

Test system: Swiss mice, Sarcoma 180 sc, mean tumor weight T/C
Assay: NCI In Vivo Anticancer Drug Screen. Data for tumor model Sarcoma 180 (subcutaneous) in Swiss mice
Conditions: endpoint: mean tumor weight, higher = larger tumour
Description: The antitumor activity of compounds was measured in mice bearing transplantable tumors. Survival or tumor size were measured and the results are expressed as the measurement made in the treated group (T) divided by the measurement made in the vehicle treated control group (C). The tumor model used in this assay is Sarcoma 180 (subcutaneous) in Swiss mice

Q: With O=C(O)C(=O)O.O=C([O-])C(=O)O.O=C([O-])C(=O)O.O=C([O-])C(=O)[O-].[K+].[U] as the molecule, how does the T/C (dose: 3.5 mg/kg/injection, schedule: Q#A X014 (ip), vehicle: saline) read?
A: 44 % of control, 64 % of control, 98 % of control

Q: And the T/C (dose: 5.0 mg/kg/injection, schedule: Q#A X014 (ip), vehicle: saline)?
A: 51 % of control, 74 % of control, 80 % of control

Q: With CCCCC(=O)OCC1OC(n2cnc3c(=S)nc[nH]c32)C(OC(=O)CCCC)C1OC(=O)CCCC (stereo not given) as the molecule, how does the T/C (dose: 500.0 mg/kg/injection, schedule: Q01DX007 (ip), vehicle: carboxymethylcellulose (CMC)) read?
A: 33 % of control and 74 % of control

Q: Which T/C (dose: 5.3 mg/kg/injection, schedule: Q01DX007 (ip), vehicle: carboxymethylcellulose (CMC)) does the source give for CCc1nc(N)nc(N)c1-c1ccc(Cl)c(Cl)c1.O.O.[Zn] here?
A: 20 % of control and 49 % of control

Q: What does the source list for Nc1nc(=S)c2ncn(C3OC(COC(=O)c4ccc([N+](=O)[O-])cc4)C(OC(=O)c4ccc([N+](=O)[O-])cc4)C3OC(=O)c3ccc([N+](=O)[O-])cc3)c2[nH]1 (stereo not given)?
A: T/C (dose: 10.0 mg/kg/injection, schedule: Q01DX007 (ip), vehicle: carboxymethylcellulose (CMC)): 40 % of control and 85 % of control; T/C (dose: 23.0 mg/kg/injection, schedule: Q01DX007 (ip), vehicle: carboxymethylcellulose (CMC)): 24 % of control, 34 % of control, 67 % of control

Q: Which T/C (dose: 166.5 mg/kg/injection, schedule: Q#A X014 (ip), vehicle: methylcellulose (MC)) does the source give for Cc1ccc(NCC2(/N=C/c3ccccc3)OC(CO)C(O)C2O)cc1 (stereo not given) here?
A: 54 % of control and 81 % of control

Q: And the T/C (dose: 375.0 mg/kg/injection, schedule: Q#A X014 (ip), vehicle: methylcellulose (MC))?
A: 27 % of control and 100 % of control

Q: With CN(C)/C=N/c1nccs1 as the molecule, how does the T/C (dose: 55.5 mg/kg/injection, schedule: Q01DX007 (ip), vehicle: saline) read?
A: 59 % of control and 155 % of control

Q: What about the T/C (dose: 187.5 mg/kg/injection, schedule: Q01DX007 (ip), vehicle: saline) of the same molecule?
A: 16 % of control and 61 % of control

Q: Which T/C (dose: 112.0 mg/kg/injection, schedule: Q01DX007 (ip), vehicle: carboxymethylcellulose (CMC)) does the source give for CN(C)[C@@H]1C(=O)C(C(=O)NCc2nc3[nH]cnc(=S)c3[nH]2)=C(O)[C@@]2(O)C(=O)C3=C(O)c4c(O)cccc4[C@@](C)(O)[C@H]3C[C@@H]12 here?
A: 40 % of control and 84 % of control

Q: For Cc1ccc(N=NN(C)C)cc1, which T/C (dose: 16.65 mg/kg/injection, schedule: Q#A X014 (ip), vehicle: methylcellulose (MC)) is on record?
A: 50 % of control and 77 % of control

Q: What about the T/C (dose: 25.0 mg/kg/injection, schedule: Q#A X014 (ip), vehicle: methylcellulose (MC)) of the same molecule?
A: 48 % of control and 99 % of control

Q: And the T/C (dose: 37.5 mg/kg/injection, schedule: Q#A X014 (ip), vehicle: methylcellulose (MC))?
A: 35 % of control and 83 % of control

Q: What does the source list for COC1N(C2CC(O)C(CO)O2)C(=O)NC(=O)C1(F)Br (stereo not given)?
A: T/C (dose: 33.0 mg/kg/injection, schedule: Q01DX007 (ip), vehicle: saline): 48 % of control and 90 % of control; T/C (dose: 50.0 mg/kg/injection, schedule: Q01DX007 (ip), vehicle: saline): 37 % of control and 67 % of control

Q: What does the source list for CC(=O)OCC(=O)C1(O)C(C)CC2C3C=C(C)C4=Cc5c(cnn5-c5ccccc5)CC4(C)C3C(O)CC21C (stereo not given)?
A: T/C (dose: 0.5 mg/kg/injection, schedule: Q01DX007 (sc), vehicle: steriod suspending solution): 12 % of control, 52 % of control, 93 % of control; T/C (dose: 1.0 mg/kg/injection, schedule: Q01DX007 (sc), vehicle: steriod suspending solution): 13 % of control, 37 % of control, 79 % of control; T/C (dose: 2.0 mg/kg/injection, schedule: Q01DX007 (sc), vehicle: steriod suspending solution): 38 % of control and 95 % of control; T/C (dose: 4.0 mg/kg/injection, schedule: Q01DX007 (sc), vehicle: steriod suspending solution): 20 % of control and 58 % of control

Q: C[C@@H]1C[C@@H]([C@H](O)CC2CC(=O)NC(=O)C2)C(=O)[C@@H](C)C1 was tested. Which T/C (dose: 1.5 mg/kg/injection, schedule: Q#A X014 (ip), vehicle: carboxymethylcellulose (CMC)) did it give?
A: 78 % of control and 111 % of control

Q: What about the T/C (dose: 6.0 mg/kg/injection, schedule: Q#A X014 (ip), vehicle: carboxymethylcellulose (CMC)) of the same molecule?
A: 51 % of control and 84 % of control

Q: And the T/C (dose: 16.0 mg/kg/injection, schedule: Q01DX007 (ip), vehicle: carboxymethylcellulose (CMC))?
A: 48 % of control, 109 % of control, 122 % of control

Q: With CC(=O)NNC(=O)c1ccccn1 as the molecule, how does the T/C (dose: 150.0 mg/kg/injection, schedule: Q01DX007 (ip), vehicle: water) read?
A: 29 % of control and 74 % of control

Q: For CC1(C)O[C@@H]2C[C@H]3[C@@H]4CCC5=CC(=O)CC[C@]5(C)[C@@]4(F)[C@@H](O)C[C@]3(C)[C@]2(C(=O)CO)O1, which T/C (dose: 8.0 mg/kg/injection, schedule: Q01DX007 (sc), vehicle: steriod suspending solution) is on record?
A: 37 % of control and 67 % of control
